Data: PMC10668032
Some of the results follow. At the low end of the ranking the order means little.

What follows are sequences tested against SIX1-Q177R homeodomain (UniProt Q15475) (assay: universal protein binding microarray). Details: Universal all-10-mer PBM (8x60K, AMADID 030236), 300 nM GST-tagged protein, Alexa Fluor 488 anti-GST; buffer, salt, pH and temperature not stated; high values mean tight binding; most listed sequences are background and not binding sites; double strand, one strand shown.
ACGTAGAG was tested, and the binding signal was 0.156 E-score.
In the case of ACCACCCA, the binding signal is reported as 0.0766 E-score.
With AAGCATAC the binding signal was 0.0346 E-score.
Sequence AGCGTGGA has a binding signal of -0.183 E-score.
GTTTAATA showed a binding signal of -0.085 E-score.
Work on ACTTGGCC yielded a binding signal of -0.111 E-score.
In the case of AAAGTATC, the binding signal is reported as 0.0463 E-score.
Sequence AACAAGTG has a binding signal of 0.172 E-score.
GCCCAAAA was tested, and the binding signal was -0.126 E-score.
With CCTGATGC the binding signal was -0.0944 E-score.
For ACGCGGGG, the binding signal was 0.208 E-score.
In the case of ACTCATGG, the binding signal is reported as 0.0849 E-score.
Sequence TCCGTGAA has a binding signal of -0.0156 E-score.
With TGACGGAA the binding signal was -0.256 E-score.
CGGTAACG was tested, and the binding signal was -0.0305 E-score.
In the case of CATTAGAA, the binding signal is reported as -0.0077 E-score.
In the case of AACGTGCG, the binding signal is reported as -0.144 E-score.
CGAAACAA gave a binding signal of -0.127 E-score.
For CCCATGAC, the binding signal was 0.083 E-score.
ACGATGCA showed a binding signal of 0.0486 E-score.
AAGTATGA gave a binding signal of 0.0202 E-score.
ATCAGTTA was tested, and the binding signal was -0.0505 E-score.
In the case of GGGGGTTA, the binding signal is reported as 0.293 E-score.
TAACCTTA showed a binding signal of -0.06 E-score.
With ACAATAAC the binding signal was -0.0766 E-score.
GGTGGGTA gave a binding signal of 0.165 E-score.
For GAATTCCC, the binding signal was -0.0586 E-score.
AGCGCTGA showed a binding signal of -0.133 E-score.
ATCGGGCA showed a binding signal of 0.195 E-score.
AATCGGTC was tested, and the binding signal was -0.072 E-score.
With CTCATGGC the binding signal was 0.0288 E-score.
In the case of GACCACAA, the binding signal is reported as -0.232 E-score.
TCTCCTAA showed a binding signal of -0.103 E-score.
With AGACCTGC the binding signal was -0.275 E-score.
Work on GGTGACAC yielded a binding signal of 0.472 E-score.
Work on CAATGATA yielded a binding signal of 0.0206 E-score.
CACACATG was tested, and the binding signal was 0.165 E-score.
In the case of AGAAGAGA, the binding signal is reported as -0.084 E-score.
GGAATAGA was tested, and the binding signal was -0.0365 E-score.
GAATTCAC gave a binding signal of -0.253 E-score.
GCCCGCAC gave a binding signal of -0.0307 E-score.
Sequence AACACTTA has a binding signal of 0.328 E-score.
In the case of AAACCCAC, the binding signal is reported as 0.134 E-score.
AGTAGGCA was tested, and the binding signal was -0.0338 E-score.
TACGCTGA was tested, and the binding signal was 0.0181 E-score.
Work on AACCCTCC yielded a binding signal of 0.121 E-score.
CAACACAA showed a binding signal of 0.182 E-score.
In the case of CAGGCACC, the binding signal is reported as 0.11 E-score.
ACGGAGCC was tested, and the binding signal was -0.144 E-score.
With GTGTTCGA the binding signal was 0.409 E-score.
Sequence CGAAGATC has a binding signal of 0.000775 E-score.
In the case of GCGTTTCC, the binding signal is reported as 0.0472 E-score.
AGAAAATC gave a binding signal of -0.331 E-score.
AGTGTGGG gave a binding signal of 0.192 E-score.
CAGAGTCA was tested, and the binding signal was 0.0842 E-score.
CACAACGC showed a binding signal of -0.0501 E-score.
For CAAGCGAG, the binding signal was -0.056 E-score.
TCACCACA was tested, and the binding signal was 0.0745 E-score.
ATATGGTA was tested, and the binding signal was -0.0982 E-score.
With CATAGGGC the binding signal was -0.139 E-score.
CAGGCAAG showed a binding signal of -0.132 E-score.
Work on ATTCCGGA yielded a binding signal of -0.111 E-score.
For GTAGCAAC, the binding signal was -0.0606 E-score.
Sequence AGTCATAA has a binding signal of -0.0687 E-score.
AGGCCTTA showed a binding signal of -0.333 E-score.
In the case of AAGATCAG, the binding signal is reported as -0.0381 E-score.
AATAAACG gave a binding signal of -0.195 E-score.
AGGATCAA was tested, and the binding signal was 0.118 E-score.
With CGACTTCC the binding signal was -0.227 E-score.
With CAATAGCC the binding signal was -0.0953 E-score.
Work on CGCCGAGA yielded a binding signal of 0.0922 E-score.
Sequence ACAGGTAA has a binding signal of -0.142 E-score.
Work on CTGAGAAG yielded a binding signal of -0.198 E-score.
For CCGCCCGG, the binding signal was -0.0707 E-score.
CCGTTTAA showed a binding signal of -0.0277 E-score.
Sequence ACATGAGG has a binding signal of 0.0762 E-score.
With GATGAGGC the binding signal was -0.169 E-score.
In the case of GGTGTACA, the binding signal is reported as 0.482 E-score.
CATTTTGA gave a binding signal of -0.0786 E-score.
For AGCAGTGA, the binding signal was -0.0608 E-score.
With CAGTCTTA the binding signal was -0.0332 E-score.
With GGAGCACC the binding signal was 0.268 E-score.
Work on CCAAGCAA yielded a binding signal of -0.0273 E-score.
Work on AAGATACA yielded a binding signal of 0.121 E-score.
GTATACGA was tested, and the binding signal was 0.0583 E-score.
For ACGACATA, the binding signal was 0.0484 E-score.
For CTTATGGA, the binding signal was -0.246 E-score.
AGCGTCCT gave a binding signal of 0.0386 E-score.
ATTAGCGA was tested, and the binding signal was 0.0318 E-score.
With GCTTTAAC the binding signal was -0.00128 E-score.
In the case of AATTTTAG, the binding signal is reported as -0.218 E-score.
In the case of AAAGTTTA, the binding signal is reported as -0.0843 E-score.
For AGGTGGAC, the binding signal was -0.0742 E-score.
GGTGCTGA gave a binding signal of 0.218 E-score.
In the case of CAGTTTAA, the binding signal is reported as 0.026 E-score.
Work on ACAAAGGA yielded a binding signal of -0.00992 E-score.
With ATCAATGG the binding signal was -0.00189 E-score.
ACACATAG was tested, and the binding signal was 0.155 E-score.
AGACAGGA was tested, and the binding signal was -0.0794 E-score.
Sequence ATTCTCAA has a binding signal of -0.212 E-score.
AAGCAACA showed a binding signal of 0.122 E-score.
CTGACTTA was tested, and the binding signal was -0.167 E-score.
ACACCGGG was tested, and the binding signal was 0.484 E-score.
For AGGTGGGG, the binding signal was 0.12 E-score.
GCTTGCCC gave a binding signal of -0.3 E-score.
TGTCAAAA gave a binding signal of 0.198 E-score.
GGTTCTCA showed a binding signal of 0.00199 E-score.
CGGCCACC showed a binding signal of -0.19 E-score.
Sequence CCTCAAAC has a binding signal of 0.0403 E-score.
In the case of AGTTTCGG, the binding signal is reported as -0.0993 E-score.
ACCATAAG showed a binding signal of 0.131 E-score.
CTGTGCAA was tested, and the binding signal was -0.0723 E-score.
In the case of AGAAGAAA, the binding signal is reported as -0.213 E-score.
Work on CTCAAGCC yielded a binding signal of -0.0506 E-score.
For TCAGTTCA, the binding signal was -0.0984 E-score.
Sequence GGAGGTCA has a binding signal of -0.0808 E-score.
In the case of CAATCCTC, the binding signal is reported as -0.146 E-score.
CTAGGCCA gave a binding signal of -0.217 E-score.
AGCTGGGC was tested, and the binding signal was -0.144 E-score.
CCGTTGAG showed a binding signal of -0.185 E-score.
In the case of AGATGCTC, the binding signal is reported as -0.337 E-score.
In the case of ACTGTCGG, the binding signal is reported as 0.0624 E-score.
With AATAAATG the binding signal was -0.327 E-score.
CGTGAGAC was tested, and the binding signal was -0.038 E-score.
For CCTCTTCG, the binding signal was -0.107 E-score.
AATGTTGG was tested, and the binding signal was -0.156 E-score.
ACCCTTCA showed a binding signal of 0.166 E-score.
For GAATTCGC, the binding signal was -0.15 E-score.
Sequence CAGAATCC has a binding signal of -0.164 E-score.
AAGAAGTG was tested, and the binding signal was 0.181 E-score.
In the case of CCATTAGA, the binding signal is reported as 0.008 E-score.
In the case of AACCGTAC, the binding signal is reported as 0.107 E-score.
GATACGTA was tested, and the binding signal was 0.0647 E-score.
CCCATAGA gave a binding signal of -0.0494 E-score.
ACGTGCAA gave a binding signal of -0.127 E-score.
CCTGTAAC showed a binding signal of -0.0219 E-score.
For CATACCCC, the binding signal was 0.205 E-score.
ACAGCATA was tested, and the binding signal was -0.262 E-score.
With ACAGATCT the binding signal was -0.397 E-score.
ACTGTTAG gave a binding signal of -0.137 E-score.
Work on ACTGCTTA yielded a binding signal of -0.137 E-score.
In the case of TCTTCTCA, the binding signal is reported as -0.135 E-score.
In the case of TTCGCGAA, the binding signal is reported as 0.034 E-score.
For CGCCGATA, the binding signal was 0.0802 E-score.
ATTGAGCG gave a binding signal of -0.137 E-score.
For CAAGAGTC, the binding signal was -0.0267 E-score.
With CCCCCGAG the binding signal was 0.188 E-score.
ATCTAGTG showed a binding signal of 0.232 E-score.
Sequence GGCTGATA has a binding signal of 0.145 E-score.
For ACATGGAA, the binding signal was -0.106 E-score.
With ACTACCAT the binding signal was -0.0374 E-score.
CGCTTTAG showed a binding signal of -0.0015 E-score.
In the case of CTATAAAA, the binding signal is reported as -0.183 E-score.
Work on CACTTATC yielded a binding signal of 0.0695 E-score.
Sequence CACTTCAG has a binding signal of 0.106 E-score.
CCTGGCCC was tested, and the binding signal was -0.121 E-score.
With GAAAGCCC the binding signal was -0.08 E-score.
For CGGTGAAG, the binding signal was -0.169 E-score.
With ACTTTGCG the binding signal was 0.0268 E-score.
AGCGGTTA was tested, and the binding signal was -0.215 E-score.
For GATTGCCC, the binding signal was -0.237 E-score.
Work on AGAGCTCG yielded a binding signal of -0.133 E-score.
ATGTACTC was tested, and the binding signal was 0.0779 E-score.
CCTAACCA was tested, and the binding signal was 0.108 E-score.
Sequence GATAAGCC has a binding signal of -0.184 E-score.
AAAATTCC was tested, and the binding signal was -0.1 E-score.
With CCTGTCTC the binding signal was -0.174 E-score.
With GAGCAGGA the binding signal was -0.0971 E-score.
With GCCTAGTA the binding signal was -0.168 E-score.
ATATTCAA was tested, and the binding signal was -0.313 E-score.
In the case of AGGTGAAC, the binding signal is reported as -0.0908 E-score.
Sequence GACGTCAC has a binding signal of -0.0216 E-score.
